On the set-up of the data set: key to Nonionic 24 h, emulsion stability, mL separation / Nonionic 1 h, emulsion stability, mL separation: D = dispersable; S = soluble; I = insoluble; Tr = trace; Floc = flocculation observed. As to the method: Surfactant candidates for water soluble herbicide applications are examined as a replacement for the anionic, nonionic, or anionic/nonionic blend portion and compared to a known industry adjuvant standard for use in paraquat, a water soluble herbicide concentrate formulation. A standard dilution test is conducted whereby the concentrates are diluted in water to determine if solubility is complete.
A known industry paraquat adjuvant (2.8 g) is added and vigorously mixed for 30 s. Deionized water (8.07 g) is added, and mixing resumes for 30 s. Standard 342 ppm water (47.5 mL) is added to a 50-mL Nessler cylinder, which is stoppered and equilibrated in a 30° C. water bath. Once the test water equilibrates, the formulated paraquat (2.5 mL) is added by pipette into the cylinder. The cylinder is stoppered and inverted ten times. Solubility is recorded as complete or incomplete. Cylinders are allowed to stand and the amount (in mL) and type of separation are recorded after 30 min., 1 h, 2 h, and 24 h. Results of the solubility testing appear in Table 5 below.
Anionic test sample: Paraquat (4.57 g of 43.8% active material) is added to a 20-mL glass vial. An eight to ten mole alkyl phenol ethoxylate surfactant (0.7 g) is added and vigorously mixed for 30 s. Test sample (0.7 g) is added and mixing resumes for 30 s. Deionized water (4.03 g) is added, and mixing resumes for 30 s.
Nonionic test sample: Paraquat (4.57 g of 43.8% active material) is added to a 20-mL glass vial. Test sample (0.7 g) is added and vigorously mixed for 30 s. Sodium linear alkylbenzene sulfonate (“NaLAS,” 0.7 g) is added and mixing resumes for 30 s. Deionized water (4.03 g) is added, and mixing resumes for 30 s.
Adjuvant (anionic/nonionic) test sample: Paraquat (4.57 g of 43.8% active material) is added to a 20-mL glass vial. Test sample (1.4 g) is added and vigorously mixed for 30 s. Deionized water (4.03 g) is added, and mixing resumes for 30 s.

[1] abbreviates: test sample replaces nonionic portion, 24 h.
[2] abbreviates: test sample replaces nonionic portion, 1 h.

Read-outs that look alike come from different tables or passages of the source.

As for `C[N+](C)([O-])CCCNC(=O)CCCCCCC/C=C/CCCCCCCC(=O)NCCC[N+](C)(C)[O-]` [Mix-29, C18 DiDMAPA DiAO], under setting [1], the “Nonionic 24 h, emulsion stability, mL separation” value (“Nonionic 24 h, emulsion stability” below) was “Tr”.
Turning to `C[N+](C)([O-])CCCNC(=O)CCCCCCCCC(CCCCCCCC(=O)NCCC[N+](C)(C)[O-])S(=O)(=O)[O-].[Na+]` (centres unmarked) [Sample C18-30, C18 DiDMAPA DiAO Sulfonate], the “Nonionic 1 h, emulsion stability, mL separation” value (shortened to “Nonionic 1 h, emulsion stability”) under setting [2] is listed as “Tr”. Besides, the “Nonionic 24 h, emulsion stability” value under setting [1] is “Tr”.
For the molecule `CN(C)CCCNC(=O)CCCCCCCCC(CCCCCCCC(=O)NCCCN(C)C)S(=O)(=O)[O-].[Na+]` (centres unmarked) [Sample C18-68, C18 diDMAPA Amide Sulfonate], the “Nonionic 1 h, emulsion stability” value under setting [2] was “Tr”. For the same molecule, the “Nonionic 24 h, emulsion stability” value under setting [1] is given as “Tr”.
As for C10 DMAPA AO Sulfonate [Sample C10-21], the “Adjuvant 1 h, emulsion stability, mL separation” value came to 0 mL; the “Adjuvant 24 h, emulsion stability, mL separation” value worked out at 0 mL; the “Anionic 1 h, emulsion stability, mL separation” value is 0 mL; the “Anionic 24 h, emulsion stability, mL separation” value is given as 0 mL. For the same molecule, the “Nonionic 1 h, emulsion stability” value was 0.25 mL and the “Nonionic 24 h, emulsion stability” value is on record as 0.5 mL.
MTG DMAPA AO [MTG-12]: the “Adjuvant 1 h, emulsion stability, mL separation” value is 0 mL; the “Adjuvant 24 h, emulsion stability, mL separation” value stood at 0 mL; the “Anionic 1 h, emulsion stability, mL separation” value is reported as 0 mL; the “Anionic 24 h, emulsion stability, mL separation” value was 0 mL. The “Nonionic 1 h, emulsion stability” value came out at 0 mL and the “Nonionic 24 h, emulsion stability” value is recorded as 0 mL.
